{
  "source": "PubChem BioAssay AID624417",
  "about": "(National Center for Advancing Translational Sciences (NCATS), 2012)",
  "note": "Out of some 410,000 compounds screened, about 6,400 (1.6%) were called active. The shares of active, inactive and inconclusive entries below differ from those in the screen. The call rests on the fitted dose curve; in most records, active means well fitted inhibition curve with a large enough effect; inconclusive means small, poorly fitted or top-dose-only effect; inactive means no such curve, though single readings can be large or run the other way. Potencies of inconclusive entries are left out as doubtful fits. Potency means the concentration at half of the fitted maximal effect; tags describe the fitted curve by direction and shape.",
  "data": [
    {"target": "Glucagon-like peptide 1 receptor (Homo sapiens) (UniProt P43220)", "sequence (P43220 whole entry, looked up)": "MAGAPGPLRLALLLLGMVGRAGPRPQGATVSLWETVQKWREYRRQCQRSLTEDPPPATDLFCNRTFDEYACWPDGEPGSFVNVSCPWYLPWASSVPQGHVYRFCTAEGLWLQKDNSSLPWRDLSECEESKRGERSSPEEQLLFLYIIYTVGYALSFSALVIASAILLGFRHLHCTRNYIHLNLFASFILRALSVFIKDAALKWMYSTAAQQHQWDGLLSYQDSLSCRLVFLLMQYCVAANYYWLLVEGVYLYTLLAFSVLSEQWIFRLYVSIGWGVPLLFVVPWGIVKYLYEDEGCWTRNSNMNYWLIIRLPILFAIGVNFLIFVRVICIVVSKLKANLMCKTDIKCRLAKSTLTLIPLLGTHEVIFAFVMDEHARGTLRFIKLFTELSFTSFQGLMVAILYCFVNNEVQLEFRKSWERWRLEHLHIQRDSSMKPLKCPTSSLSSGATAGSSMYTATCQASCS", "test": "qHTS of GLP-1 Receptor Inverse Agonists (Inhibition Mode); further: nearly all actives have a fitted effect of over 55% in size", "conditions": "HEK293 GLP-1R CRE-luciferase, luminescence, 24 h, GLP-1R form is constitutively active; series mostly up to 38.3 µM", "method_in_brief": "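Using stably transfected HEK293 (constitutively active GLP-1R, cAMP-luciferase reporter), compounds were incubated 24 hr and luciferase measured by luminescence.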", "values": [
      {"compound": "Cc1cc(NC(=O)CSc2nc(-c3ccco3)cc(C(F)(F)F)n2)n(-c2ccccc2)n1", "Potency": "inactive"},
      {"compound": "N#Cc1cccc(C(=O)N(CCc2ccccc2)Cc2cccs2)c1", "Potency": "inconclusive [inhibitor, partial curve]"},
      {"compound": "CC(=O)N1CCc2c(sc(NC(=O)CSc3ccccc3)c2-c2nc3ccccc3s2)C1", "Potency": "inactive"},
      {"compound": "Cc1cc2oc(=O)cc(CN(C)Cc3ccccc3)c2cc1C(C)C", "Potency": "inconclusive [inhibitor, single point]"},
      {"compound": "COc1ccc(C2NCCn3cccc32)cc1", "note": "(stereo not drawn)", "Potency": "inconclusive [inhibitor, partial curve, poor fit]"},
      {"compound": "CCOc1ccc(-n2cc(-c3ccccc3)c3c(N4CCOCC4)ncnc32)cc1", "Potency": "inconclusive [inhibitor, partial curve, poor fit]"},
      {"compound": "COc1ccc2c(c1)OC[C@H]1[C@H]2N2C(=O)CN(Cc3ccc(F)cc3)C(=O)[C@@]2(C)[C@H]1c1ccccc1", "Potency": "inconclusive [inhibitor, single point]"},
      {"compound": "CC(=O)Nc1ccc(Oc2cncc(Cl)c2)nc1", "Potency": "inconclusive [inhibitor, partial curve, poor fit]"},
      {"compound": "N#CCCCC#Cc1ccc2c(c1)COc1c3ccccc3nn1-2", "Potency": "active: 2.51 µM"},
      {"compound": "CN(C)CCNC(=O)c1ccc(Cl)c2cc3ccccc3nc12", "Potency": "active: 7.08 µM"},
      {"compound": "CSc1ccc(S(=O)(=O)N(C)Cc2ccccc2)cc1", "Potency": "inconclusive [inhibitor, partial curve, poor fit]"},
      {"compound": "CCOc1ccccc1NC(=O)N1CC(CC)Oc2ccccc21", "note": "(stereo not drawn)", "Potency": "inconclusive [inhibitor, single point]"},
      {"compound": "COc1cc2ccccc2cc1C(=O)Nc1ccccc1N1CCCC1", "Potency": "inconclusive [inhibitor, partial curve, poor fit]"},
      {"compound": "c1ccc(CN2CCC(CNc3ncnc4ccccc34)C2)cc1", "note": "(stereo not drawn)", "Potency": "inconclusive [inhibitor, partial curve, poor fit]"},
      {"compound": "O=C1[C@H](Cc2ccccc2)NCCCC[C@H](c2ccc(Cl)cc2)N1Cc1ccccc1", "Potency": "inconclusive [inhibitor, partial curve, poor fit]"},
      {"compound": "CC1(C(=O)Nc2cnc3ccccc3c2)CCN1C(=O)CCc1ccccc1", "note": "(stereo not drawn)", "Potency": "inactive"},
      {"compound": "COc1ccccc1N(CC(=O)NCc1ccccc1C)S(=O)(=O)c1ccc(C)cc1", "Potency": "inconclusive [inhibitor, partial curve]"},
      {"compound": "O=C(CN1CCN(c2ccc(O)cc2)CC1)Nc1ccc2c(c1)OCCCO2", "Potency": "inconclusive [inhibitor, single point]"},
      {"compound": "COc1ccc(S(=O)(=O)Nc2ccc(NC(C)=O)cc2)cc1Cl", "Potency": "inactive"},
      {"compound": "Cc1cc(C)c(C)c(S(=O)(=O)N2CCCN(C)CC2)c1C", "Potency": "inconclusive [inhibitor, single point]"},
      {"compound": "Cc1ccc(NC(=O)C2C(c3ccccc3)C2(Cl)Cl)c(C)c1", "note": "(stereo not drawn)", "Potency": "active: 11.2 µM"},
      {"compound": "Cc1cccc(NC(=S)N/N=C2\\CC(C)(C)Oc3ccc(O)cc32)c1", "Potency": "inconclusive [inhibitor, full curve, poor fit]"},
      {"compound": "O=C(NCc1ccccc1Cl)c1cc2c(s1)-c1ccc(Cl)cc1SC2", "Potency": "inconclusive [inhibitor, partial curve, poor fit]"},
      {"compound": "COc1ccccc1C1CC(c2cccs2)=NN1C(=O)CCC(=O)O", "note": "(stereo not drawn)", "Potency": "inactive"},
      {"compound": "CCCCN(CCCC)Cc1cc(=O)oc2cc(C)c(Cl)cc12", "Potency": "inconclusive [inhibitor, single point]"},
      {"compound": "CC(C)(C)OC(=O)CNC(=O)c1[nH]cnc1C(=O)Nc1ccc(CNC(=O)OC(C)(C)C)cc1", "Potency": "inconclusive [inhibitor, partial curve, poor fit]"},
      {"compound": "COc1ccc(Nc2nc(C)cc(-c3cc(-c4ccccc4)on3)n2)cc1", "Potency": "inactive"},
      {"compound": "COc1ccc(OC)c(CNC(=O)c2ccc(Sc3ccc(C)cc3)c(N)c2)c1", "Potency": "inconclusive [inhibitor, partial curve, poor fit]"},
      {"compound": "Cc1ccc(NC(=O)CN2C(=O)CCc3cc(S(=O)(=O)N4CCOCC4)ccc32)cc1F", "Potency": "inactive"},
      {"compound": "Cc1ccc(CNC(=S)NC2CCC(C(C)(C)C)CC2)cc1", "note": "(stereo not drawn)", "Potency": "inconclusive [inhibitor, single point]"},
      {"compound": "Cc1ccc(NCc2nc3ccccc3n2C)cc1", "Potency": "inconclusive [inhibitor, partial curve, poor fit]"},
      {"compound": "Cc1cccc(CN2CCC(CNC(=O)Nc3ccc(F)c(Cl)c3)CC2)c1", "Potency": "inconclusive [inhibitor, partial curve, poor fit]"},
      {"compound": "Cc1cc(C)c(S(=O)(=O)N2CCN(C(=O)c3cccs3)CC2)c(C)c1", "Potency": "inconclusive [inhibitor, partial curve, poor fit]"},
      {"compound": "CC(C)(C)NC(=S)Nc1cccc(C(F)(F)F)c1", "Potency": "inconclusive [inhibitor, single point]"},
      {"compound": "COc1ccc(C(NC(=O)C(C)C)c2c(O)ccc3ccccc23)cc1OC", "note": "(stereo not drawn)", "Potency": "inconclusive [inhibitor, partial curve, poor fit]"},
      {"compound": "COc1cccc(C2(C)NC(=O)N(CC(=O)c3cc(C)n(C4CC4)c3C)C2=O)c1", "note": "(stereo not drawn)", "Potency": "inactive"},
      {"compound": "CCN(CC)S(=O)(=O)c1ccc(N2CCCC2)c(NS(=O)(=O)c2ccc(F)cc2)c1", "Potency": "inconclusive [inhibitor, single point]"},
      {"compound": "O=C(CSc1n[nH]c(=O)n1C1CC1)N1N=C(c2ccc(Cl)cc2)CC1c1ccco1", "note": "(stereo not drawn)", "Potency": "inconclusive [inhibitor, single point]"},
      {"compound": "COc1cc(OC)cc(C2=Cc3ccccc3C(CC(C)=O)N2c2ccc(C#CC3(N)CCCCC3)cc2)c1", "note": "(stereo not drawn)", "Potency": "inconclusive [inhibitor, partial curve, poor fit]"},
      {"compound": "COc1ccccc1NC(=O)CSC1=Nc2ccccc2C2=NC(CC(=O)NCc3ccco3)C(=O)N12", "note": "(stereo not drawn)", "Potency": "inactive"},
      {"compound": "CCOc1ccccc1CN1CCN(S(=O)(=O)c2ccccc2)CC1", "Potency": "inconclusive [inhibitor, single point]"},
      {"compound": "C#CCOCCOCCOCCNc1nc(N2CCN(C(=O)CCCCCCCCCCNC(=O)[C@H](CCCCN)n3cc(C)nn3)CC2)nc(N2CCN(C(=O)CCCCCCCCCCNC(=O)[C@H](CO)n3cc(CCCSC)nn3)CC2)n1", "Potency": "inconclusive [inhibitor, single point]"},
      {"compound": "CC1CCCC(C)N1C(=O)COC(=O)C12CC3CC(CC(Cl)(C3)C1)C2", "note": "(stereo not drawn)", "Potency": "inconclusive [inhibitor, partial curve, poor fit]"},
      {"compound": "CC(=O)c1cccc(NC(=O)c2oc3c(c2C)-c2nn(Cc4ccc(Cl)cc4)cc2CC3)c1", "Potency": "inconclusive [inhibitor, single point]"},
      {"compound": "O=C(CN1N=C(c2ccc(Cl)cc2)CCC1=O)NCCc1ccc(Cl)cc1", "Potency": "inconclusive [inhibitor, partial curve, poor fit]"},
      {"compound": "Cc1ccc(C2=NS(=O)(=O)N(C)C(C(=O)N(C)C3CCCCC3)=C2)cc1", "Potency": "inconclusive [inhibitor, single point]"},
      {"compound": "Cc1ccccc1NC(=O)c1ccc2c(c1)c(C)c(C)n2Cc1ccccc1", "Potency": "inconclusive [inhibitor, full curve]"},
      {"compound": "Cc1ccc(C)c(N2CCN(C(C(=O)NC3CCCC3)c3ccco3)CC2)c1", "note": "(stereo not drawn)", "Potency": "inactive"},
      {"compound": "Cc1ccc(C)c(N2CCN(C(=O)C34CC5CC(C3)CC(n3nnc(C)n3)(C5)C4)CC2)c1", "Potency": "inconclusive [inhibitor, partial curve, poor fit]"},
      {"compound": "CCc1ccc(OCCNC(=O)c2ccco2)cc1", "Potency": "inconclusive [inhibitor, single point]"},
      {"compound": "Cc1cccc(NC(=O)CSc2nccn2Cc2ccc(F)cc2)c1C", "Potency": "inconclusive [inhibitor, single point]"},
      {"compound": "CCC(=O)Nc1ccc(SC#N)cc1C", "Potency": "inactive"},
      {"compound": "Cc1c(/C=N\\NC(=O)C2COc3ccccc3O2)c2ccccc2n1C", "note": "(stereo not drawn)", "Potency": "inconclusive [inhibitor, full curve, poor fit]"},
      {"compound": "CCOc1ccc(N(CC)S(=O)(=O)c2cc(Br)cc3c2N(C(C)=O)C(C)C3)cc1", "note": "(stereo not drawn)", "Potency": "inactive"},
      {"compound": "Cc1onc(C(=O)Nc2ccc(OC(F)(F)F)cc2)c1[N+](=O)[O-]", "Potency": "inconclusive [inhibitor, partial curve, poor fit]"},
      {"compound": "Cc1nc(N2CCN(C(=O)c3ccco3)CC2)c2c3c(sc2n1)CC(C)CC3", "note": "(stereo not drawn)", "Potency": "inconclusive [inhibitor, partial curve, poor fit]"},
      {"compound": "CCOc1ccc(C(=O)Nc2ccc(NC(=O)c3cccs3)cc2)cc1[N+](=O)[O-]", "Potency": "inactive"},
      {"compound": "COc1ccc2c(C)c(CC(=O)N3CCN(C(=O)C4COc5ccccc5O4)CC3)c(=O)oc2c1C", "note": "(stereo not drawn)", "Potency": "inconclusive [inhibitor, partial curve, poor fit]"},
      {"compound": "CN(C)CCNc1ncnc2c1ncn2[C@H]1CN(CCc2ccccc2)C[C@@H](CO)O1", "Potency": "inactive"},
      {"compound": "CC12CC3CC(C)(C1)CC(C(=O)NC(=S)N1CCCCC1)(C3)C2", "Potency": "inconclusive [inhibitor, partial curve, poor fit]"},
      {"compound": "O=C1c2ccccc2NC(c2cnc3ccccc3n2)N1O", "note": "(stereo not drawn)", "Potency": "inconclusive [inhibitor, single point]"},
      {"compound": "Cc1ccc(C(=O)NC(=S)NCc2ccccc2)cc1Br", "Potency": "inconclusive [inhibitor, single point]"},
      {"compound": "CC1CCCc2sc3nc(SCC(=O)c4ccc(Br)cc4)nc(N)c3c21", "note": "(stereo not drawn)", "Potency": "inactive"}
    ]}
  ]
}
